The values that follow come from the BET-seq Pho4 binding data (Le et al. 2018).

This is one part of the list. Values were computed here from the reads of four pooled replicates and scatter widely.

For the test, the target named is T1, Pho4 (S. cerevisiae) (UniProt P07270).
T1 sequence: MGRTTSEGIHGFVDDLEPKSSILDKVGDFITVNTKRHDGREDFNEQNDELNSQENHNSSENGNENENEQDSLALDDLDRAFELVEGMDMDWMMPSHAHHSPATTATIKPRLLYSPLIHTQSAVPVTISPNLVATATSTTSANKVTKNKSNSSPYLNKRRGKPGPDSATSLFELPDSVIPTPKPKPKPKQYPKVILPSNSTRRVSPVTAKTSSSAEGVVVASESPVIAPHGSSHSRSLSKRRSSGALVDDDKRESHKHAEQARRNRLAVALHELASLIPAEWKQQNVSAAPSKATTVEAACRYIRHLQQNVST
As to the kind of experiment: relative binding free energy (BET-seq); higher = weaker binding. Particulars: reference: library average.
For TTTTTCACGTGTCAGC, the “relative binding free energy” value stood at 0.36 kcal/mol.

Regarding TTTGGCACGTGGAACT, the “relative binding free energy” value is 0.08 kcal/mol.

Turning to GCAAACACGTGTGGTT, the “relative binding free energy” value was 0.12 kcal/mol.

Turning to GTGGTCACGTGGAAGG, the “relative binding free energy” value amounted to 0.15 kcal/mol.

For the sequence GGAATCACGTGTTGTG, the “relative binding free energy” value was found to be 0.15 kcal/mol.

For the sequence AATGCCACGTGTGGTT, the “relative binding free energy” value is 0.03 kcal/mol.

On to TAGTACACGTGCTGTT, for which the “relative binding free energy” value worked out at 0 kcal/mol.

Turning to TTTTTCACGTGATGTA, the “relative binding free energy” value stood at 0.34 kcal/mol.

For the sequence TGTTTCACGTGAAGGC, the “relative binding free energy” value turned out to be 0.31 kcal/mol.

As to TCTTTCACGTGCGAGG, the “relative binding free energy” value turned out to be 0.36 kcal/mol.

For the sequence CTAGGCACGTGGTGCG, the “relative binding free energy” value was -0.28 kcal/mol.

With TGTTTCACGTGGGCGA, the “relative binding free energy” value worked out at 0.16 kcal/mol.

For ATTGTCACGTGGATAA, the “relative binding free energy” value came to 0.19 kcal/mol.

In the case of TATTGCACGTGACTGG, the “relative binding free energy” value was 0 kcal/mol.

On to TATAACACGTGAGGCG, for which the “relative binding free energy” value was 0.26 kcal/mol.

For GTCAGCACGTGTGTAT, the “relative binding free energy” value is -0.01 kcal/mol.

With CGTGACACGTGTCGGG, the “relative binding free energy” value was -0.1 kcal/mol.

As to TGTAACACGTGGTGGC, the “relative binding free energy” value was -0.11 kcal/mol.

As to GGTCTCACGTGTGCGT, the “relative binding free energy” value came to 0.2 kcal/mol.

As to GGAATCACGTGAGTGT, the “relative binding free energy” value came out at 0.4 kcal/mol.

As to GCGTACACGTGATTGG, the “relative binding free energy” value is 0.26 kcal/mol.

Turning to CGATTCACGTGTGATG, the “relative binding free energy” value was 0.29 kcal/mol.

As to GTAGTCACGTGCTGAT, the “relative binding free energy” value is 0.06 kcal/mol.

For GGTGCCACGTGTTGGC, the “relative binding free energy” value amounted to 0 kcal/mol.

GGTATCACGTGTGAAT: the “relative binding free energy” value was 0.29 kcal/mol.

With GTGCACACGTGGGGTA, the “relative binding free energy” value is -0.14 kcal/mol.

Consider TGGGTCACGTGCTTTT, for which the “relative binding free energy” value worked out at 0.03 kcal/mol.

For the sequence TTAAGCACGTGTATGG, the “relative binding free energy” value stood at 0.02 kcal/mol.

With GTTGACACGTGTATGA, the “relative binding free energy” value was 0.07 kcal/mol.

For the sequence TTTGACACGTGTTTAC, the “relative binding free energy” value worked out at 0.16 kcal/mol.

TGGGGCACGTGTGCGA: the “relative binding free energy” value was -0.22 kcal/mol.

On to TGTGTCACGTGGTCTA, for which the “relative binding free energy” value was determined as 0.08 kcal/mol.

For GCTTACACGTGTGTTG, the “relative binding free energy” value was found to be 0.19 kcal/mol.

For TTATACACGTGATTTT, the “relative binding free energy” value stood at 0.28 kcal/mol.

Turning to TTGCTCACGTGGGTGC, the “relative binding free energy” value was determined as 0.03 kcal/mol.

Consider TTCTTCACGTGTGGGC, for which the “relative binding free energy” value came to 0.21 kcal/mol.

Turning to ATAGACACGTGTTTAT, the “relative binding free energy” value amounted to 0.19 kcal/mol.

Turning to AGTTGCACGTGGGTAA, the “relative binding free energy” value was -0.13 kcal/mol.

With GGGGGCACGTGGGTCC, the “relative binding free energy” value is -0.17 kcal/mol.

On to TTCAACACGTGGTGTG, for which the “relative binding free energy” value was -0.05 kcal/mol.

Consider GGGCTCACGTGGGGGG, for which the “relative binding free energy” value was determined as 0.06 kcal/mol.

As for TTCTGCACGTGTTTGC, the “relative binding free energy” value was 0.04 kcal/mol.

Turning to TTGAGCACGTGTGAGT, the “relative binding free energy” value was -0.03 kcal/mol.

Take TATTACACGTGAGTGC: the “relative binding free energy” value turned out to be 0.29 kcal/mol.

Turning to TTCTTCACGTGACGTT, the “relative binding free energy” value was found to be 0.42 kcal/mol.

Turning to GGTTACACGTGTCATA, the “relative binding free energy” value was 0.09 kcal/mol.

As to TGGTTCACGTGTTGCC, the “relative binding free energy” value was found to be 0.24 kcal/mol.

Turning to ATATGCACGTGGGAGA, the “relative binding free energy” value is -0.15 kcal/mol.

As for TTCGTCACGTGTTAGA, the “relative binding free energy” value worked out at 0.12 kcal/mol.

For the sequence AGGGGCACGTGCATGT, the “relative binding free energy” value is -0.24 kcal/mol.

In the case of GGCTGCACGTGGGAGG, the “relative binding free energy” value was -0.06 kcal/mol.

With TTGTTCACGTGTCATG, the “relative binding free energy” value amounted to 0.33 kcal/mol.

Take GGCGACACGTGAGTTT: the “relative binding free energy” value came to 0.34 kcal/mol.

Take GAGGGCACGTGCTGGC: the “relative binding free energy” value worked out at 0.02 kcal/mol.

For ATGGTCACGTGCGAAG, the “relative binding free energy” value amounted to 0.29 kcal/mol.

Consider TATTTCACGTGGCCGG, for which the “relative binding free energy” value came to 0.16 kcal/mol.

Turning to GTTGGCACGTGACGTG, the “relative binding free energy” value is 0.21 kcal/mol.

For the sequence TAGGTCACGTGGTTTC, the “relative binding free energy” value was 0.12 kcal/mol.

Regarding TGACTCACGTGTTTAA, the “relative binding free energy” value was determined as 0.33 kcal/mol.

With CATGACACGTGGTTTG, the “relative binding free energy” value is -0.05 kcal/mol.

As to AGTGTCACGTGTATGT, the “relative binding free energy” value is 0.01 kcal/mol.

On to GTAGTCACGTGTATAA, for which the “relative binding free energy” value was determined as 0.14 kcal/mol.

In the case of CTGAGCACGTGGATGG, the “relative binding free energy” value is -0.09 kcal/mol.

For TGTGTCACGTGTGCGC, the “relative binding free energy” value was found to be 0.09 kcal/mol.

As to TATCGCACGTGGTGCG, the “relative binding free energy” value was -0.1 kcal/mol.

For GGTCTCACGTGGGAGT, the “relative binding free energy” value was 0.12 kcal/mol.

Consider TTTGGCACGTGCCTTT, for which the “relative binding free energy” value is -0.11 kcal/mol.

For GAGTGCACGTGCGGGT, the “relative binding free energy” value is -0.08 kcal/mol.

Turning to AGTGTCACGTGTAACG, the “relative binding free energy” value came to 0.12 kcal/mol.

On to AGTGACACGTGGCGTT, for which the “relative binding free energy” value was -0.09 kcal/mol.

Consider TTATTCACGTGTGGAG, for which the “relative binding free energy” value stood at 0.33 kcal/mol.

Turning to GTAGACACGTGGGCGA, the “relative binding free energy” value was determined as 0.03 kcal/mol.

As to CGGTTCACGTGGAATG, the “relative binding free energy” value is 0.23 kcal/mol.

As to TCGGACACGTGGAGGG, the “relative binding free energy” value amounted to 0.12 kcal/mol.

With GTTAGCACGTGAATTA, the “relative binding free energy” value turned out to be 0.33 kcal/mol.

With TAGGTCACGTGAGGGC, the “relative binding free energy” value was found to be 0.34 kcal/mol.

Take ATTTTCACGTGTGATC: the “relative binding free energy” value stood at 0.42 kcal/mol.

As for ACTGTCACGTGTGTCG, the “relative binding free energy” value turned out to be 0.11 kcal/mol.

For the sequence AATTCCACGTGGGGGT, the “relative binding free energy” value is -0.14 kcal/mol.

For GTTGTCACGTGTAGGC, the “relative binding free energy” value is 0.25 kcal/mol.

Take TACTTCACGTGGGTGG: the “relative binding free energy” value was determined as 0.17 kcal/mol.

With CACGTCACGTGTGGTG, the “relative binding free energy” value was 0.17 kcal/mol.

On to AATGACACGTGCTGGT, for which the “relative binding free energy” value was -0.09 kcal/mol.

Regarding TGAGACACGTGTTCTG, the “relative binding free energy” value was -0.02 kcal/mol.

On to ATTTTCACGTGAGGAG, for which the “relative binding free energy” value turned out to be 0.37 kcal/mol.

Turning to TGGTTCACGTGGACCG, the “relative binding free energy” value was 0.26 kcal/mol.

As for AGAAGCACGTGTTAGT, the “relative binding free energy” value is -0.1 kcal/mol.

As to CGTGTCACGTGTTTTA, the “relative binding free energy” value was -0.1 kcal/mol.

GAGGGCACGTGTGTTG: the “relative binding free energy” value was -0.03 kcal/mol.

Take TTTATCACGTGGGAAT: the “relative binding free energy” value worked out at 0.13 kcal/mol.

For GGATGCACGTGAGATT, the “relative binding free energy” value stood at 0.28 kcal/mol.

Take AGGGGCACGTGGAAGT: the “relative binding free energy” value was -0.06 kcal/mol.

With ATAGGCACGTGTAAAT, the “relative binding free energy” value came out at 0.05 kcal/mol.

For GAAGTCACGTGGATAG, the “relative binding free energy” value was determined as 0.28 kcal/mol.

GGGTTCACGTGCGAAA: the “relative binding free energy” value worked out at 0.34 kcal/mol.

In the case of TGAGGCACGTGCTCGG, the “relative binding free energy” value was -0.18 kcal/mol.

Turning to AGCGCCACGTGAGGTG, the “relative binding free energy” value was 0.21 kcal/mol.

As to AACGTCACGTGGGTTC, the “relative binding free energy” value was determined as 0.09 kcal/mol.

In the case of TAGCGCACGTGAAGGT, the “relative binding free energy” value turned out to be 0.16 kcal/mol.

With AAAGTCACGTGATTTG, the “relative binding free energy” value was 0.31 kcal/mol.

On to TTTCGCACGTGCAAGG, for which the “relative binding free energy” value turned out to be 0.05 kcal/mol.

For AATCTCACGTGGGAGT, the “relative binding free energy” value worked out at 0.37 kcal/mol.

Take AGCTGCACGTGGGTTA: the “relative binding free energy” value was -0.07 kcal/mol.

As to CTGTTCACGTGAAGTT, the “relative binding free energy” value came out at 0.27 kcal/mol.

For the sequence TCTGACACGTGGAGGG, the “relative binding free energy” value was determined as 0 kcal/mol.

Take GGTAGCACGTGCTTAG: the “relative binding free energy” value is -0.08 kcal/mol.

Consider GTGTTCACGTGGTTTA, for which the “relative binding free energy” value came to 0.3 kcal/mol.

As for CTTCACACGTGGGGGG, the “relative binding free energy” value is 0.01 kcal/mol.

With ATTGTCACGTGGCAGC, the “relative binding free energy” value is 0.12 kcal/mol.

With GGGTGCACGTGTTAGA, the “relative binding free energy” value was determined as 0.03 kcal/mol.

Take TATTTCACGTGCGCAT: the “relative binding free energy” value was 0.26 kcal/mol.

Regarding CTGGACACGTGGGTTA, the “relative binding free energy” value is -0.05 kcal/mol.

Turning to ATGGTCACGTGAAATA, the “relative binding free energy” value worked out at 0.29 kcal/mol.

Regarding TTGATCACGTGGATTT, the “relative binding free energy” value turned out to be 0.22 kcal/mol.

In the case of CGGAGCACGTGTGTGG, the “relative binding free energy” value was -0.01 kcal/mol.
